Source: PubChem BioAssay AID330 (DTP/NCI, 2004)
Toxic doses and inconclusive results are not listed. A number of entries come with more than one value. They are shown here; other results are not. The source may hold further records. Values given together repeat one measurement across runs, samples, wells, individuals or studies. Records carry a tag for their origin. A, B and so on number the origins entry by entry.

Test system: P388 leukemia ip, CD2F1 mice, survival T/C
Experiment: NCI In Vivo Anticancer Drug Screen. Data for tumor model P388 Leukemia (intraperitoneal) in CD2F1 (CDF1) mice
Settings: endpoint: median survival time, higher = longer survival
[1] = dose: 200.0 mg/kg/injection, schedule: Q04DX003 (ip), vehicle: saline with Tween-80

`COc1ccc(CC2C(=O)NC(C)C(=O)N(C)C3Cc4ccc(cc4)Oc4cc(ccc4O)CC(C(=O)NC(C)C(=O)NC(C)C(=O)N2C)N(C)C3=O)cc1` (centres undefined) was tested, and the T/C (dose: 0.5 mg/kg/injection, schedule: Q01DX009 (ip), vehicle: saline with Tween-80) was 106 % of control and 156 % of control.

For `COC(=O)CC1(O)C(=O)OCc2c1cc1n(c2=O)Cc2c-1nc1ccccc1c2OC` (centres undefined), the T/C (dose: 25.0 mg/kg/injection, schedule: Q01DX009 (ip), vehicle: saline) was 110 % of control and 167 % of control.

For `COc1cccc2c1C(=O)c1c(O)c3c(c(O)c1C2=O)C[C@@](O)(/C(C)=N\NC(N)=O)C[C@@H]3OC1CC(N)C(O)C(C)O1` (some centres undefined), the T/C (dose: 6.25 mg/kg/injection, schedule: Q01DX009 (ip), vehicle: saline) was 106 % of control and 181 % of control and the T/C (dose: 12.5 mg/kg/injection, schedule: Q01DX009 (ip), vehicle: saline) was 113 % of control and 160 % of control.

In the case of `Nc1nc(=S)c2ncn(C3OC(COC(=O)c4ccc(Cl)cc4)C(OC(=O)c4ccc(Cl)cc4)C3OC(=O)c3ccc(Cl)cc3)c2[nH]1` (centres undefined), the T/C [1] is reported as 120 % of control and 154 % of control.

`Cc1ccc(S(=O)(=O)N/N=C/C(Br)=C(/Br)C(=O)O)cc1` was tested, and the T/C (dose: 100.0 mg/kg/injection, schedule: Q01DX009 (ip), vehicle: distilled water + Tween-80) was 100 % of control and 192 % of control and the T/C (dose: 200.0 mg/kg/injection, schedule: Q01DX009 (ip), vehicle: distilled water + Tween-80) was 90 % of control and 182 % of control.

With `CCSc1nc2ccc(N=Cc3ccccc3O)cc2s1` the T/C (dose: 50.0 mg/kg/injection, schedule: Q01DX009 (ip), vehicle: Klucel (hydroxypropylcellulose) (HPC)) was 94 % of control, 102 % of control, 168 % of control.

For `CCCCCC(N)C(C)=O` (centres undefined), the T/C (dose: 100.0 mg/kg/injection, schedule: Q01DX009 (ip), vehicle: saline with Tween-80) was 92 % of control and 187 % of control.

In the case of `CC(C)CCCCCCCCCCCCC(=O)NCC(=O)NC1C(C)OC(Nc2ncnc3nc[nH]c23)C(O)C1O` (centres undefined), the T/C (dose: 2.0 mg/kg/injection, schedule: Q01DX009 (ip), vehicle: other) is reported as 94 % of control and 157 % of control.

`CC([NH-])CC(C)[NH-].O=[N+]([O-])O.O=[N+]([O-])O.[Pt+2]` (centres undefined) was tested, and the T/C (dose: 6.25 mg/kg/injection, schedule: Q04DX002 (ip), vehicle: saline) was 120 % of control [sample A] and 160 % of control [sample B] and the T/C (dose: 12.5 mg/kg/injection, schedule: Q04DX002 (ip), vehicle: saline) was 150 % of control [sample A] and 90 % of control [sample B] and 184 % of control [sample C].

With `CCOc1ccc(Br)cc1/C=N/NS(=O)(=O)c1ccc(C)cc1` the T/C (dose: 400.0 mg/kg/injection, schedule: Q01DX009 (ip), vehicle: saline with Tween-80) was 100 % of control and 157 % of control.

In the case of `O=[N+]([O-])c1ccccc1C(Nc1nncs1)Nc1nncs1`, the T/C (dose: 200.0 mg/kg/injection, schedule: Q01DX005 (ip), vehicle: Klucel (hydroxypropylcellulose) (HPC)) is reported as 102 % of control and 154 % of control.

In the case of `CC1=CC(=O)[C@@H](O)[C@]2(C)[C@H]3[C@@H](O)[C@H](O)[C@@]4(C)OC[C@@]35[C@@H](C[C@@H]12)OC(=O)C[C@]54O`, the T/C (dose: 0.5 mg/kg/injection, schedule: Q01DX009 (ip), vehicle: saline) is reported as 119 % of control and 156 % of control.

In the case of `C/C(=N\NC(=S)N1CC2CCC(CC2)C1)c1cccc(C)n1`, the T/C (dose: 25.0 mg/kg/injection, schedule: Q01DX005 (ip), vehicle: saline with Tween-80) is reported as 121 % of control and 151 % of control.

`Cc1ccc2cc3c(ccc4ccccc43)c3c2c1CC3` was tested, and the T/C [1] was 123 % of control and 163 % of control.

In the case of `CCOc1ccc(C(C)c2cc3c(cc2OC)OCO3)cc1` (centres undefined), the T/C (dose: 333.33 mg/kg/injection, schedule: Q01DX005 (ip), vehicle: distilled water + Tween-80) is reported as 96 % of control and 196 % of control.

In the case of `NC(Cc1ccccc1)C(=O)OCN1C(=O)C2C3C=CC(C2C1=O)C1C2C(=O)N(COC(=O)C(N)Cc4ccccc4)C(=O)C2C31` (centres undefined), the T/C (dose: 200.0 mg/kg/injection, schedule: Q01DX009 (ip), vehicle: water) is reported as 105 % of control and 163 % of control.
